From PubChem BioAssay AID1963576 (National Center for Advancing Translational Sciences (NCATS), 2024)
Hit rate of the full screen: of about 46,000 compounds, about 60 (0.1%) were called active. About 3% were inconclusive and are not listed. Calls follow the shape of the dose curve; as a rule, active = well fitted inhibition curve with a large enough effect; inconclusive = small, poorly fitted or top-dose-only effect; inactive = no such curve, though single readings can be large or run the other way. The list shows a part of the results.

Experiment: Primary qHTS assay for Inhibitors of ovarian cancer metastasis using an organotypic tumor microenvironment (TME) model. Also: nearly all actives have a fitted effect of over 65% in size.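 As to activity change, negative = inhibition: plate controls were DMSO wells for no effect and tomatine positive control wells for full effect.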
Details: SKOV3ip1-GFP adhesion/invasion on 3D omental model, fluorescence; series mostly up to 45.8 µM; activity change, negative = inhibition: at the top concentration
Outline: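 Primary human omental fibroblast/mesothelial 3D culture pre-formed 48 h. SKOV3ip1-GFP cells added with compounds (0.36-46 umol/L), incubated 2 h RT/16 h 37 C, fixed; GFP cells quantified at 488/509 nm.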

Activity change, negative = inhibition, inactive:
CCN(C(=O)c1cccn(Cc2ccccc2C)c1=O)c1ccccc1 4.9%
Cc1ccc(F)cc1NC(=O)c1ccc(Cn2nc(N3CCN(c4ccccc4)CC3)ccc2=O)o1 -11%
O=C(Cn1c(-c2cccs2)cc2cc(F)ccc21)NCCCN1CCN(c2ccccc2F)CC1 -19.1%
Cc1cccc(N2CCN(CCCNC(=O)c3sc4ncccc4c3-n3cccc3)CC2C)c1 (stereo not drawn) -8.4%
Cc1nnc(NC(=O)CSc2nnc3c(n2)[nH]c2ccccc23)s1 8.05%
Cc1nn(CCCC(=O)NCc2cccc(Cl)c2)c(=O)c2c1sc1ccccc12 9.71%
O=C(Cn1cc(SCc2ccccc2)c2ccccc21)N1CCCCCC1 1.7%
COc1ccc(-n2nc(C(=O)NCCc3ccc(OC)c(OC)c3)c3c4ccccc4n(C)c3c2=O)cc1Cl -0.624%
Cc1oc(-c2ccc(C(=O)NCCc3ccc(Cl)cc3)cc2)nc1CSc1ccccc1 -5.43%
COc1ccc(-c2cn3nc(N4CCC(C(=O)Nc5ccc(Cl)cc5C)CC4)sc3n2)cc1 -22.1%
CCOc1ccccc1CNC(=O)c1cnc2c(-c3ccc(OCC)c(OCC)c3)c(C)nn2c1C -0.14%
Cc1ccccc1CN1C(=O)c2ccccc2Sc2ccc(C(=O)OCc3ccco3)cc21 -7.71%
Cc1ccc2nc(-c3ccc(Cl)c(NC(=O)c4cccc([N+](=O)[O-])c4C)c3)oc2c1 -8.13%
CCn1ccc2cc(S(=O)(=O)N3CCC(C(=O)NCc4ccc(OC)cc4)CC3)ccc21 2.63%
CCOC(=O)C1CCC(CN(Cc2c(Cl)cccc2Cl)S(=O)(=O)c2ccc(Cl)cc2)CC1 (stereo not drawn) -4.86%
O=C(NCc1ccccc1)c1ccc2c(c1)N(Cc1cccc(Cl)c1)C(=O)c1ccccc1S2(=O)=O 2.12%
Cc1ccc(S(=O)(=O)n2nc(C)c(S(=O)(=O)N3CCC(C)CC3)c2C)cc1 -1.41%
Cc1ccc(N2CCN(c3c(CN4CCCC4)c(=O)oc4ccccc34)CC2)c(C)c1 0.812%
COCCCNC(=O)c1c(NC(=O)c2cc(=O)c3ccccc3o2)sc2c1CCCC2 1.61%
Cc1ccc(-c2nc(SCC(=O)N3CCc4ccccc43)c3c(=O)n(C)c(=O)n(C)c3n2)cc1 1.43%
COc1ccc(Cn2c(SCC(=O)Nc3ccc(OC)cc3)nc3ccccc32)cc1 2.51%
COc1cc(/C=C/c2nc3cc(Cl)ccc3c(=O)n2-c2cccc(C(F)(F)F)c2)cc(OC)c1OC -2.07%
CC1CCCN(Cc2c(O)ccc3c(=O)c(Oc4ccc(C(C)(C)C)cc4)c(C(F)(F)F)oc23)C1 (stereo not drawn) 12.6%
COc1cc(NC(=O)Nc2nnc(N3CCCCCC3)s2)cc(OC)c1 9.63%
Cc1ccc(-c2nc3c(cnn3-c3ccccc3)c(=O)n2-c2cccc(Cl)c2)cc1 1.56%
COc1cc(OC)c(N(C)C(=O)C2CCCN(c3ncnc4c3nc3n4CCCCC3)C2)cc1Cl (stereo not drawn) 1.95%
Cn1c(=O)c(=O)n(C)c2cc(S(=O)(=O)CCC(=O)Nc3cccc(C(F)(F)F)c3)ccc21 6.98%
O=C(NCC1CCN(Cc2cccc(F)c2)CC1)c1cc2ccc3cccnc3c2[nH]1 4.05%
CC1=C(c2ccc(C(C)C)cc2)S(=O)(=O)N=C1N1CCC(C(=O)NCc2ccco2)CC1 -1.91%
CCOc1ccc(NC(=O)c2c(NC(=O)c3cccc(C)c3)sc3c2CCC3)cc1 5.03%
CCOc1ccc(NC(=O)Cn2c(=O)n(Cc3ccccc3)c(=O)c3sc4ccccc4c32)cc1 -16.6%
Cc1cc(C)cc(NC(=O)CN2C(=O)CSc3ccc(S(=O)(=O)N4CCCC4)cc32)c1 7.89%
COc1ccc(CCNc2ncnc3c2c(-c2ccccc2)cn3-c2cccc(Cl)c2)cc1OC -15.1%
C=C(c1ccc(C(=O)O)cc1)c1cc2c(cc1C)C(C)(C)CCC2(C)C -4.35%
Cc1ccc(CNC(=O)Cn2c(=O)cc(-c3ccccc3)c3c(C)nn(C)c32)cc1 2.96%
Cc1ccn2c(=O)c(C(=O)NCCc3ccc(S(N)(=O)=O)cc3)c(O)nc2c1 -4.35%
CCn1c(=O)c2sccc2n2c(CCCC(=O)N3CCN(c4cc(C)ccc4C)CC3)nnc12 5.58%
COc1ccccc1CNC(=O)C1CCN(S(=O)(=O)c2c(C)noc2/C=C/c2cccs2)CC1 -9.62%
Cc1cc(=O)n(Cc2ccc(F)cc2Cl)c2c1c(C)nn2-c1ccccc1 1.27%
COc1cccc(NC(=O)N(Cc2cn(C)c3ccccc23)C2CCCCC2)c1 -2.02%
Cc1cc(Nc2ccccc2Cl)n2nc(-c3ccco3)nc2n1 -3.81%
COc1ccc(NC(=O)NCc2cccn2Cc2ccc(F)cc2)cc1OC -7.7%
COc1cc(C2C(C(=O)OC(C)C)=C(C)N=C3SCCC(=O)N32)ccc1OCc1ccccc1 (stereo not drawn) -17.9%
CS(=O)(=O)NCCc1csc2nc(-c3ccccc3)nn12 -5.14%
COc1ccc(N2C(=O)CSC23C(=O)N(CC(=O)NCc2ccccc2)c2ccccc23)cc1 (stereo not drawn) -21.3%
Cc1ccc(NCc2ccccc2-c2nnc(-c3ccccc3Cl)o2)cc1Cl -7.25%
COc1ccccc1CNC(=O)CCCn1nc(C)c2c(C)n(-c3ccc(C)cc3)nc2c1=O -7.57%
Cc1nc2ccn(Cc3cccnc3)c(=O)c2cc1C(=O)NCc1ccc(Cl)cc1 4.26%
O=C(Cn1cc(S(=O)(=O)N2CCN(c3ccccc3F)CC2)c2ccccc2c1=O)Nc1cccc(C(F)(F)F)c1 -12.3%
Cc1cccc2c1-c1sc(C(=O)N3CCN(c4ccc(F)cc4)CC3)cc1CO2 -11.8%
CC(=O)c1ccc(N2CCN(S(=O)(=O)c3cc(-c4onc(C)c4C)ccc3C)CC2)cc1 -9.02%
O=C(NCCc1ccccc1)C(=O)NCC(c1cccnc1)N1CCN(c2ccccc2)CC1 (stereo not drawn) 0.355%
COc1ccc(C(=O)Nc2ccc3c(c2)N(C2CCCC2)C(=O)c2ccccc2S3)cc1OC -9.35%
Cc1ccc(C)c(-c2nn(CC(=O)Nc3cc(F)ccc3F)c(=O)c3c2CCCC3)c1 10.7%
CC(CNC(=O)c1ccc(CSc2nc3ccncc3n2Cc2cccc(F)c2)cc1)c1ccccc1 (stereo not drawn) -6.41%
O=C(CSc1nnc2scc(-c3ccc(Cl)cc3)n12)Nc1ccccc1F 9.08%
Cc1ccc(-c2cc(C(F)(F)F)n3nc(C(=O)Nc4sc5c(c4C#N)CCC(C)C5)cc3n2)cc1 (stereo not drawn) 3.05%
Cc1ccc2onc(CC(=O)Nc3cc(F)ccc3F)c2c1 -6.98%
CCc1ccccc1N(C)C(=O)Nc1cn(CC(C)C)c(=O)c2ccccc12 6.09%
CCC1CCCCN1S(=O)(=O)c1ccc2c(c1)CCCN2C(C)=O (stereo not drawn) 3.03%
C=Cc1ccc(CSc2nc(-c3ccccc3C)nc3c2Cc2c(CO)cnc(C)c2O3)cc1 -12.6%
COCCNC(=O)CN1C(=O)COc2ccc(S(=O)(=O)N3CCOCC3)cc21 51.7%
Cc1cc(N2CCN(C)CC2)nc2ccc(NC(=O)Nc3ccc(Cl)cc3)cc12 3.66%
CCOc1ccc(N2CC(NC(=O)c3ccc(S(=O)(=O)N4CCOCC4)cc3)CC2=O)cc1 (stereo not drawn) 3.39%
O=C(CSc1nc(=O)n(Cc2ccco2)c2c1CCC2)NCc1ccccc1Cl -14.4%
CCOc1ccc(CNC(=O)CCn2c(=O)c3cccn3c3cccnc32)cc1 4.4%
Cc1nn(-c2ccc(F)cc2)c(-n2cccc2)c1C(=O)N1CCCCC1C (stereo not drawn) 6.84%
O=C(CSc1nnc(CNC(=O)c2ccccc2)n1-c1ccc(F)cc1)Nc1ccccc1F 5.68%
COc1ccccc1N1CCN(S(=O)(=O)c2ccc3c(c2)CCCN3C(C)=O)CC1 1.93%
CCOCCCn1c(SCC(=O)Nc2ccc(F)cc2)nc2c(sc3ccccc32)c1=O 1.01%
CCCCOc1ccc(C(=O)Nc2sc3c(c2C(=O)OCC)CCCCC3)cc1 -8.25%
Cc1ccccc1CNC(=O)CN1CCSc2ccccc21 18.3%

outcome, inactive:
O=c1n(Cc2ccc(F)cc2)nc2n1-c1cc(Cl)ccc1OC2
COc1ccc(NC(=O)C2CCN(c3nc4ccccc4nc3C(F)(F)F)CC2)cc1
O=C(COCc1cc(-c2ccco2)on1)Nc1cccc(O)c1
CN(C)S(=O)(=O)c1ccc2c(c1)N(CC(=O)N1CCN(c3cccc(Cl)c3)CC1)CCS2
CCOC(=O)c1c(NC(=O)CSc2cn(CCNC(=O)c3ccccc3OC)c3ccccc23)sc2c1CCCC2
Cc1nn(CC(=O)N2CCN(c3ccccc3)CC2)c(=O)c2cc3cc(F)ccc3n12
CCc1ccc(NC(=O)CC2C(=O)N(c3ccc(OC)cc3)C(=O)N2Cc2ccc(OC)cc2)cc1 (stereo not drawn)
Cc1c(C(=O)NCCc2ccccc2)cccc1-n1cnc2cccnc21
COc1ccccc1N1CCN(S(=O)(=O)CCNC(=O)COc2ccc(F)cc2)CC1
COc1ccc(S(=O)(=O)NC2(C(F)(F)F)NC(=O)N(CCc3ccc(OC)c(OC)c3)C2=O)cc1 (stereo not drawn)
Cc1ccccc1CNC(=O)CCCn1c(=O)c2cccn2c2ccccc21
CCOc1cccc(CC(=O)N2CCc3c([nH]c4ccccc34)C2c2ccc(C)cc2)c1OCC (stereo not drawn)
COc1cc(C(=O)Nc2ccc(Cl)c(-c3nc4ncccc4o3)c2)cc(OC)c1OC
COC(=O)c1c(SC)nc2ccccc2c1OCc1ccc(C)cc1C
CCn1cc(C(=O)OCC(=O)Nc2cccc(Cl)c2C)c(=O)c2ccc(C)nc21
COC(=O)c1scc(-c2ccc(C)cc2)c1S(=O)(=O)Nc1ccc(OC(F)(F)F)cc1
N#Cc1ccc(NC(=O)COCc2cc(-c3ccc4c(c3)OCO4)on2)cc1
O=C(CC1NCCNC1=O)Nc1ccc(F)c(Cl)c1 (stereo not drawn)
Cc1cc(=O)n2nc(N3CCC(C(=O)NCCCOC(C)C)CC3)sc2n1
CCC(C(=O)Nc1cc(-c2cn3cccnc3n2)ccc1C)c1ccccc1 (stereo not drawn)
COc1ccc(Nc2ncc(C(=O)Nc3ccc(F)cc3F)c3ccccc23)cc1
